These results are taken from PubChem BioAssay AID1508624 (National Center for Advancing Translational Sciences (NCATS), 2021).

The whole screen tested about 48,000 compounds, of which about 120 (0.25%) were called active. Another 4% or so got no clear call; they are omitted. The call rests on the fitted dose curve; in most records, active means well fitted activation curve with a large enough effect; inconclusive means small, poorly fitted or top-dose-only effect, or another doubt; inactive means no such curve, though single readings can be large or run the other way. This is one part of the list.

The experiment is described as follows: Primary qHTS for Identification of Small Molecule Activators of Huntingtin-Antisense Promoter Activity. Further: nearly all actives have a fitted effect of over 55% in size. The conditions noted are these: HEK293 HTT-AS promoter firefly luciferase reporter (activity 0% = vehicle and -100% = no light), 24 h; series mostly up to 57.5 µM; activity change, positive = activation: at the top concentration. The method, boiled down: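 HEK293 cells carrying firefly luciferase reporters were seeded at 2,500 per well in Opti-MEM and cultured for 24 h. They were then treated with compounds at up to 57.5 uM final for 24 h at 37 degrees C before Dual-Glo luminescence readout.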
For orientation: qHTS replaces the single test concentration by a dilution series.
`CCOC(=O)N1CCN(Cc2nc3cc(NC(=O)c4ccccc4Cl)ccc3n2C(C)C)CC1`: the “activity change, positive = activation” value was inactive: -54.4%.

`CC(=O)N1CCc2c(sc3c2c(=O)n(-c2ccccc2Cl)c(=O)n3Cc2cccc(C)c2)C1`: the “activity change, positive = activation” value is inactive: -50.9%.

In the case of `CC(=O)c1cccc(NC(=O)CCc2c(C)nc3nc(CN)nn3c2C)c1`, the “activity change, positive = activation” value was inactive: -8.78%.

As for `COc1ccccc1NC(=O)CSc1cn(CC(=O)N2CCCC2)c2ccccc12`, the “activity change, positive = activation” value is inactive: -10.1%.

Take `CCC1CCCCN1C(=O)CSc1nnc(-c2ccc(OC)c(OC)c2)o1` (stereo unspecified): the “activity change, positive = activation” value was inactive: -11.7%.

Consider `CCOC(=O)c1ccc(NC(=O)N2CC3CCCN3c3ccccc32)cc1` (stereo unspecified), for which the “activity change, positive = activation” value was inactive: -27.2%.

As to `Cc1cc(-c2ccccc2)nnc1NCCN1CCOCC1`, the “activity change, positive = activation” value was inactive: -7.39%.

As to `O=C(Cn1cc(S(=O)(=O)N2CCCC2)c(S(=O)(=O)N2CCCC2)c1)Nc1ccc(F)cc1`, the “activity change, positive = activation” value is inactive: 3.69%.

For `CCC(=O)N1CCc2cc(S(=O)(=O)NCc3ccc(C)cc3)ccc21`, the “activity change, positive = activation” value was inactive: -21.3%.

With `CCOc1ccc(NC(=O)c2ccc(F)c(S(=O)(=O)N(Cc3ccc(C(=O)OC)cc3)Cc3ccc(OC)c(OC)c3)c2)cc1`, the “activity change, positive = activation” value was inactive: -9.09%.

For `CCOc1ccc(N2CC(C)Cn3c2nc2c3c(=O)n(Cc3c(F)cccc3Cl)c(=O)n2C)cc1` (stereo unspecified), the “activity change, positive = activation” value is inactive: -7.51%.

For `O=C(Cn1cc(C(=O)c2ccco2)c2ccccc21)Nc1ccccc1`, the “activity change, positive = activation” value was inactive: -21.2%.

As to `CN(C)c1ncc(C(=O)NCc2ccc(Cl)cc2)cn1`, the “activity change, positive = activation” value was inactive: -10.4%.

For the compound `COc1ccc(Cl)cc1Nc1ccc2cc(S(=O)(=O)N3CCCCC3)ccc2n1`, the “activity change, positive = activation” value is inactive: -24.2%.

In the case of `CCc1ccccc1NC(=O)CN(c1ccc(OC)cc1)S(=O)(=O)c1c(C)n[nH]c1C`, the “activity change, positive = activation” value is inactive: -28.2%.

With `Cc1ccc(NC(=O)c2cc(S(=O)(=O)NCCC3=CCCCC3)ccc2F)cc1C`, the “activity change, positive = activation” value was inactive: -75.9%.

Turning to `Cc1cccc(-c2nc3scc(CCNS(=O)(=O)c4ccc(F)cc4C)n3n2)c1`, the “activity change, positive = activation” value is inactive: -24.3%.

Regarding `Cc1ccn2c(c1)nc(=O)c1cc(S(=O)(=O)N3CCCCC3)c(Cl)cc12`, the “activity change, positive = activation” value was inactive: -2.02%.

For `COc1ccc(Nc2sc(C(=O)c3ccccc3)c(N)c2C(=O)Nc2cc(C)ccc2C)c(OC)c1`, the “activity change, positive = activation” value was inactive: -27.3%.

As to `CCc1ccc(NC(=O)c2sc3nc(C)c(C(=O)Nc4ccc(C)cc4C)c(-c4ccco4)c3c2N)cc1`, the “activity change, positive = activation” value is inactive: -13.5%.

Take `Cc1oc(-c2ccccc2)nc1CNC(=O)NC1CCCCC1`: the “activity change, positive = activation” value was inactive: -14.8%.

Turning to `Cc1c(NC(=O)c2cc(-c3ccc(Br)cc3)on2)c(=O)n(-c2ccccc2)n1C`, the “activity change, positive = activation” value was inactive: 3.62%.

With `Cc1ccc(S(=O)(=O)c2nnn3c2nc(N2CCC(C)CC2)c2cc(Cl)ccc23)cc1C`, the “activity change, positive = activation” value was inactive: -13.1%.

With `CCN1C(=O)c2ccccc2S(=O)c2ccc(C(=O)N3CCN(c4ccccc4)CC3)cc21` (stereo unspecified), the “activity change, positive = activation” value is inactive: -27.2%.

Consider `COc1cccc(CNC(=O)CCCN2C(=O)CSc3c2c(C)nn3-c2ccccc2)c1OC`, for which the “activity change, positive = activation” value is inactive: -19.7%.

In the case of `CCOC(=O)c1c(NC(=O)/C=C/c2ccc(OCC)c(OC)c2)sc2c1CCC2`, the “activity change, positive = activation” value was inactive: -5.81%.

Turning to `COc1ccc(OC)c(CNC(=O)c2cc3ccc4cccnc4c3[nH]2)c1`, the “activity change, positive = activation” value was inactive: -2.65%.

On to `COc1ccc(-c2ccc3c(N4CCOCC4)nc(N4C[C@@H](C)O[C@@H](C)C4)nc3n2)cc1CO`, for which the “activity change, positive = activation” value is inactive: -23%.

As for `Cc1nn2c(=O)cc(COC(=O)c3ccc(NC(=O)COc4ccc(Cl)cc4)cc3)nc2s1`, the “activity change, positive = activation” value was inactive: -30.6%.

Turning to `CC1CCN(S(=O)(=O)c2ccc3nc(NCc4ccc(F)cc4)ccc3c2)CC1`, the “activity change, positive = activation” value is inactive: -36%.

Consider `CCOc1ccc(CCNc2ncnc3onc(-c4ccc(Cl)cc4)c23)cc1`, for which the “activity change, positive = activation” value was inactive: -67.6%.

For `O=C(Cn1nnc2sc(-c3ccccc3)cc2c1=O)Nc1cccc(C(F)(F)F)c1`, the “activity change, positive = activation” value was inactive: -5.1%.

As to `CC(C)(C)OC(=O)N1CCC(c2nnc(SCc3ccccc3F)o2)CC1`, the “activity change, positive = activation” value is inactive: -28%.

For `COc1ccc(C)cc1NC(=O)C(=O)NCCc1csc2nc(-c3ccccc3F)nn12`, the “activity change, positive = activation” value is inactive: -1.16%.

On to `CCNC(=O)Nc1ccc(Oc2ncnc(N)c2C=NOC)cc1Cl`, for which the “activity change, positive = activation” value was inactive: -1.54%.

Regarding `COc1ccc(NC(=O)c2ccc(NC(=O)CCS(=O)(=O)c3cccs3)cc2)cc1OC`, the “activity change, positive = activation” value is inactive: -6.21%.

As to `CCOC(=O)c1cc(-c2ccccc2)n(CCC(=O)Nc2cc(OCC)ccc2OCC)c1C`, the “activity change, positive = activation” value is inactive: -21.9%.

For `CCCCCn1c(CCCNC(=O)c2cccc(C)c2)nc2ccccc21`, the “activity change, positive = activation” value was inactive: -30%.

`Cc1cccc(NC(=O)CN2C(=O)c3ccccc3Sc3ncccc32)c1C`: the “activity change, positive = activation” value was inactive: -16.6%.

With `COc1ccccc1C(=O)OCc1cc(=O)n2nc(C3CCCCC3)sc2n1`, the “activity change, positive = activation” value was inactive: 8.71%.

As to `CCn1c(NCc2ccc(OC)c(OC)c2)nc2ccccc21`, the “activity change, positive = activation” value is inactive: -37%.

Turning to `COc1ccc(CCNC(=O)CSC2=Nc3ccccc3C3=NC(CCC(=O)NCc4ccccc4)C(=O)N23)cc1OC` (stereo unspecified), the “activity change, positive = activation” value is inactive: 4.13%.

On to `Cc1noc2ncnc(N3CCCC(C(=O)NC(C)C)C3)c12` (stereo unspecified), for which the “activity change, positive = activation” value is inactive: -16.3%.

Take `Cc1ccc(Cl)cc1N1CCN(CCCNc2ncnc3onc(-c4ccc(Cl)cc4)c23)CC1`: the “activity change, positive = activation” value was inactive: -11.3%.

`Cc1cccc(CCNC(=O)C2CCN(c3ncnc4c3nc3n4CCCCC3)CC2)c1`: the “activity change, positive = activation” value is inactive: 4.28%.

On to `COc1ccc(-c2nc3scc(CCNS(=O)(=O)c4ccc(F)c(C(F)(F)F)c4)n3n2)cc1OC`, for which the “activity change, positive = activation” value was inactive: -46.6%.

On to `CCCC(=O)C1=C(c2ccc(C)cc2)N(C(=O)CCC)n2cnnc2S1`, for which the “activity change, positive = activation” value was inactive: 24.5%.

In the case of `CCN1CCN(c2cc(C)c3cc(NC(=O)c4cccc(Cl)c4)ccc3n2)CC1`, the “activity change, positive = activation” value was inactive: 28.5%.

Turning to `Cc1ccc(NC(=O)c2cnc(N3CCCCC3)c3ccccc23)cc1Cl`, the “activity change, positive = activation” value is inactive: -17.7%.

In the case of `COC(=O)c1scc(-c2ccc(C)cc2)c1S(=O)(=O)Nc1cccc(Cl)c1C`, the “activity change, positive = activation” value was inactive: -33.1%.

With `Cc1n[nH]c(C)c1CCc1nc2c3ccccc3nc(SCC(=O)Nc3ccc(F)cc3)n2n1`, the “activity change, positive = activation” value was inactive: -45.3%.

On to `Cc1ccc(OCCn2cc(C(=O)c3ccco3)c3ccccc32)cc1C`, for which the “activity change, positive = activation” value is inactive: -31.1%.

As to `O=C(CCCCn1c(=O)c2ccccc2n(CC(=O)Nc2ccccc2)c1=O)NCc1ccccc1Cl`, the “activity change, positive = activation” value is inactive: -10%.

As for `Cc1cccc(N2CCN(S(=O)(=O)c3ccc4oc(=O)c5ncn(C)c5c4c3)CC2)c1C`, the “activity change, positive = activation” value is inactive: -10.1%.

For the compound `CCc1nnc2c3ccccc3nc(Nc3ccccc3OC)n12`, the “activity change, positive = activation” value was inactive: -14.9%.

Turning to `Cc1c(C)n(Cc2ccccc2)c2ccc(C(=O)NCc3ccc(OC(C)C)cc3)cc12`, the “activity change, positive = activation” value was inactive: -22.5%.

Take `CCN(CC)CCCNC(=O)C1CCN(S(C)(=O)=O)CC1`: the “activity change, positive = activation” value is inactive: 3.95%.

With `CCOC(=O)c1sc(NC(=O)C(C)Sc2nc(-c3ccccc3)cc(C(F)(F)F)n2)c(C(=O)OC)c1C` (stereo unspecified), the “activity change, positive = activation” value was inactive: 2.53%.

Turning to `CCOc1ccc(C(=O)Nc2ccc(-c3nc4cc(C)ccc4o3)cc2)cc1`, the “activity change, positive = activation” value is inactive: 27.5%.

For the compound `Cc1oc(-c2ccc(C(=O)Nc3cccc(C(F)(F)F)c3)cc2)nc1CSc1ccccc1`, the “activity change, positive = activation” value was inactive: -88.7%.

Take `COc1ccc(Nc2nc3ccc(Cl)cc3n3nnnc23)cc1OC`: the “activity change, positive = activation” value was inactive: 13.7%.
